Results on 3 molecules are retold here after patent US20260115255A1 (CYTUNE PHARMA, published 2026).

Positions count from the first letter of the chain named. Read-outs that look alike come from different tables or passages of the source.

In assay [1] the target is T1, IL-2/IL-15Rβγ on kit225 cells (UniProt P14784 27-551; P31785 23-369, limits assumed).
T1 sequence (looked up) 1: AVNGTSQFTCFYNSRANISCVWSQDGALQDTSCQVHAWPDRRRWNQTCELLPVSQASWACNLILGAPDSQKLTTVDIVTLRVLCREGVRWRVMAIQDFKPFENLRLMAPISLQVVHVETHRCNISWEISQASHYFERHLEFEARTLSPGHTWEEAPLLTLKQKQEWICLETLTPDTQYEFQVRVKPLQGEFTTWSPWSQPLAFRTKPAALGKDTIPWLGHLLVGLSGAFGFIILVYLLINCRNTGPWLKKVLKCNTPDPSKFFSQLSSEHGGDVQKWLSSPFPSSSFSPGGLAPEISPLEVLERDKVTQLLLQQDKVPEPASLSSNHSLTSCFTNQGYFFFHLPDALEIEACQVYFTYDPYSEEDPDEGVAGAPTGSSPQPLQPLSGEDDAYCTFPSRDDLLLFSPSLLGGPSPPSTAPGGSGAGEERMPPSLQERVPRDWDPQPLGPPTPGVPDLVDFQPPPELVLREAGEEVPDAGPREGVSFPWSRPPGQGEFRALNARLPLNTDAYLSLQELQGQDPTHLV
T1 sequence (looked up) 2: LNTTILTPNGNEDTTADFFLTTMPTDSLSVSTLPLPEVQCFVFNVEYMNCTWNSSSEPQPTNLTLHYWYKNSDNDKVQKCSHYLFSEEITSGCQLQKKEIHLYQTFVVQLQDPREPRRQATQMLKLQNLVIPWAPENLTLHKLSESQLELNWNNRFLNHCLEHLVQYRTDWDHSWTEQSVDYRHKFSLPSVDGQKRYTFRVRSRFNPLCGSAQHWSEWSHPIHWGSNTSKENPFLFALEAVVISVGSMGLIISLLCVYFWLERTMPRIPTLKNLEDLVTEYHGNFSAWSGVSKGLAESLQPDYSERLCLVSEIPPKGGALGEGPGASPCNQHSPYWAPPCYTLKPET
Description: cell-based or functional assay.

In assay [2] the target is T1, IL-2/IL-15Rβγ on kit225 cells. Description: cell-based or functional assay. This is another data set of the same source.
Assay [3] concerns the target T2, PD-1 (UniProt Q15116 in part, limits assumed). Put plainly: 4 °C binding, 4 h; method not described, target by context.
For assay [4], the target named is T1, IL-2/IL-15Rβγ on kit225 cells. Put plainly: cell-based or functional assay. This is another data set of the same source.
The target in assay [5] is T2, PD-1. Description: 37 °C binding, 4 h; method not described, target by context.
T2 sequence (Q15116 25-167 limits assumed): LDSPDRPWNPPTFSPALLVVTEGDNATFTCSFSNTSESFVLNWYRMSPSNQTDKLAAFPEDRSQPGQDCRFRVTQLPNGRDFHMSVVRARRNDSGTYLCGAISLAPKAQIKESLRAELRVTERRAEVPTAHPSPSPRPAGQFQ
Assay [6] deals with T2, PD-1. Description: 37 °C binding, 1 h; method not described, target by context.
Assay [7] deals with PD-1 on PD-1 Effector Cells (UniProt Q15116 25-288, limits assumed). Description: cell-based or functional assay.
Assay [8] concerns the target T3, FcγRIIIa F158 (human, UniProt P08637 in part).
T3 construct: Captured on the chip through an anti-His tag antibody; construct not described; also called hFcγRIIIaF158; CD16a F158
Put plainly: SPR; ratio of affinity (1/Kd) for FcγRIIIa F158 to affinity for FcγRIIb. The procedure:
(§1) SPR experiments were performed on a Biacore 8K (Cytiva, Chicago, IL, USA), using CM5 sensor chips (Cytiva) with an immobilization using THE His tag antibodies (Genscript). FcγRIIIa V158, FcγRIIIa F158 or FcγRIIb protein were used for capture with a contact time of 30 sec at a flow rate of […] in a 1×HBS-EP+ running buffer. Association/dissociation rates were measured for each tested immunocytokine at a flow rate of 30 μl/min with concentration serial dilution in a suitable range with an association time/dissociation time of 300 s/300 s except for constructs with DLE and DE with and without afucosylation, where association/dissociation time of 120 s/1200 s was applied.
Background: Surface plasmon resonance follows binding to a sensor surface in real time, without labels.

Assay [9] concerns the target T4, FcγRIIIa V158 (human, UniProt P08637 in part).
T4 construct: Captured on the chip through an anti-His tag antibody, so it carries a His tag; construct not described; also called hFcγRIIIaV158; FcγIIIa V158
Put plainly: SPR; ratio of affinity (1/Kd) for FcγRIIIa V158 to affinity for FcγRIIb. Here is the method:
as §1

In general, Kd refers to the constant that tells how readily two partners part at equilibrium. Read a high Kd as lower affinity.

Sequence of FcγRIIIa F158 (P08637 17-208 limits assumed): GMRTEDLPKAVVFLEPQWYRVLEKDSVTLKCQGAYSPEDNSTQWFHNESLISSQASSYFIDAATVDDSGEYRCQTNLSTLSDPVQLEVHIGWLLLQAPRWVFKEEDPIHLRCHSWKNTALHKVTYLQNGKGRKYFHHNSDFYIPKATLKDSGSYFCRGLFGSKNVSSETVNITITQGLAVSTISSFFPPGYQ
Sequence of FcγRIIIa V158 (P08637 17-208 F176V): as the sequence (P08637 17-208 limits assumed) above, with F160V counted along it

B1: SOT201 (other)
chain 1: QVQLVQSGVEVKKPGASVKVSCKASGYTFTNYYMYWVRQAPGQGLEWMGGINPSNGGTNFNEKFKNRVTLTTDSSTTTAYMELKSLQFDDTAVYYCARRDYRFDMGFDYWGQGTTVTVSSASTKGPSVFPLAPCSRSTSESTAALGCLVKDYFPEPVTVSWNSGALTSGVHTFPAVLQSSGLYSLSSVVTVPSSSLGTKTYTCNVDHKPSNTKVDKRV[… human IgG4 Fc with S228P L235E T366W (EU numbers) …]ITCPPPMSVEHADIWVKSYSLYSRERYICNSGFKRKAGTSSLTECVLNKATNVAHWTTPSLKCIRDPALVHQRPAPPSGGSGGGGSGGGSGGGGSGGNWVNVISDLKKIEDLIQSMHIDATLYTESDVHPSCKVTAMKCFLLELQVISLESGDASIHDTVEALIILANNSLSSNAQVTESGCKECEELEEKNIKEFLQSFVHIVQMFINTS
chain 2: QVQLVQSGVEVKKPGASVKVSCKASGYTFTNYYMYWVRQAPGQGLEWMGGINPSNGGTNFNEKFKNRVTLTTDSSTTTAYMELKSLQFDDTAVYYCARRDYRFDMGFDYWGQGTTVTVSSASTKGPSVFPLAPCSRSTSESTAALGCLVKDYFPEPVTVSWNSGALTSGVHTFPAVLQSSGLYSLSSVVTVPSSSLGTKTYTCNVDHKPSNTKVDKRVESKYGPPCPPCPAPEFEGGPSVFLFPPKPKDTLMISRTPEVTCVVVDVSQEDPEVQFNWYVDGVEVHNAKTKPREEQFNSTYRVVSVLTVLHQDWLNGKEYKCKVSNKGLPSSIEKTISKAKGQPREPQVYTLPPSQEEMTKNQVSLSCAVKGFYPSDIAVEWESNGQPENNYKTTPPVLDSDGSFFLVSRLTVDKSRWQEGNVFSCSVMHEALHNHYTQKSLSLSLG
chain 3: EIVLTQSPATLSLSPGERATLSCRASKGVSTSGYSYLHWYQQKPGQAPRLLIYLASYLESGVPARFSGSGSGTDFTLTISSLEPEDFAVYYCQHSRDLPLTFGGGTKVEIKRTVAAPSVFIFPPSDEQLKSGTASVVCLLNNFYPREAKVQWKVDNALQSGNSQESVTEQDSKDSTYSLSSTLTLSKADYEKHKVYACEVTHQGLSSPVTKSFNRGEC
Take B1: the “EC50 on kit225 cells” value in assay [1] worked out at 15.2 nM. For the same molecule, the “EC50 kit225 cells” value in [2] stood at 10 nM; in assay [4] it was 17.9 nM. The dissociation constant Kd in assay [3] was determined as 0.26 nM; in assay [5] it was 0.21 nM; in assay [6] it was 0.23 nM. In addition, the “EC50, PD-1/PD-L1 Blockade Bioassay” value in assay [7] was 2.77 nM.

B2: hCl1a IE-RLI DANA (other)
heavy 1: QVQLVQSGAEVKKPGASVKVSCKASGYTFTDYAMHWVRQAPGQRLEWMGWINTYTGKPTYAQKFQGRVTITRDTSASTAYMELSSLRSEDTAVYYCARAVFYGYTMDAWGQGTLVTVSSASTKGPSVFPLAPSSKSTSGGTAALGCLVKDYFPEPVTVSWNSGALTSGVHTFPAVLQSSGLYSLSSVVTVPSSSLGTQTYICNVNHKPSNTKVDKKVEPKSCDKTHTCPPCPAPELLGGPSVFLFPPKPKDTLMISRTPEVTCVVIDVSHEDPEVKFNWYVDGVEVHNAKTKPREEQYNSTYRVVSVLTVLHQDWLNGKEYKCKVSNKALPAPEEKTISKAKGQPREPQVYTLPPSRDELTKNQVSLWCLVKGFYPSDIAVEWESNGQPENNYKTTPPVLDSDGSFFLYSKLTVDKSRWQQGNVFSCSVMHEALHNHYTQKSLSLSPGITCPPPMSVEHADIWVKSYSLYSRERYICNSGFKRKAGTSSLTECVLNKATNVAHWTTPSLKCIRDPALVHQRPAPPSGGSGGGGSGGGSGGGGSGGNWVNVISDLKKIEDLIQSMHIDATLYTESDVHPSCKVTAMKCFLLELQVISLESGDASIHATVEALIILANNSLSSNAQVTESGCKECEELEEKNIKEFLQSFVHIVQMFINTS
heavy 2: QVQLVQSGAEVKKPGASVKVSCKASGYTFTDYAMHWVRQAPGQRLEWMGWINTYTGKPTYAQKFQGRVTITRDTSASTAYMELSSLRSEDTAVYYCARAVFYGYTMDAWGQGTLVTVSSASTKGPSVFPLAPSSKSTSGGTAALGCLVKDYFPEPVTVSWNSGALTSGVHTFPAVLQSSGLYSLSSVVTVPSSSLGTQTYICNVNHKPSNTKVDKKV[… human IgG1 Fc with V264I I332E T366S L368A Y407V (EU numbers) …]
light: DIQMTQSPSSLSASVGDRVTITCRASEDIYSNLAWYQQKPGKAPKLLIFSVKRLQDGVPSRFSGSGSGTDFTLTISSLQPEDFATYYCLQGSNFPLTFGQGTKVEIKRTVAAPSVFIFPPSDEQLKSGTASVVCLLNNFYPREAKVQWKVDNALQSGNSQESVTEQDSKDSTYSLSSTLTLSKADYEKHKVYACEVTHQGLSSPVTKSFNRGEC
notes: See note of m4
Turning to B2, the “A/I (F158)” value in assay [8] is 54.7. Moreover, the “A/I (V158)” value in assay [9] was 151.

B3: hCl1a TL-RLI DANA (other)
heavy 1: B2 heavy 1 with I266V, E334I, K394T, P398L
heavy 2: QVQLVQSGAEVKKPGASVKVSCKASGYTFTDYAMHWVRQAPGQRLEWMGWINTYTGKPTYAQKFQGRVTITRDTSASTAYMELSSLRSEDTAVYYCARAVFYGYTMDAWGQGTLVTVSSASTKGPSVFPLAPSSKSTSGGTAALGCLVKDYFPEPVTVSWNSGALTSGVHTFPAVLQSSGLYSLSSVVTVPSSSLGTQTYICNVNHKPSNTKVDKKV[… human IgG1 Fc with T366S L368A K392T P396L Y407V (EU numbers) …]
light: B2 light
notes: See note of m4
B3: the “A/I (F158)” value in assay [8] worked out at 20.9. For the same molecule, the “A/I (V158)” value in assay [9] was found to be 60.9.
